Inhibition data for seven compounds are collected here from ChEMBL document CHEMBL1961873, “Compounds: GSK PKIS; Assays: Nanosyn kinase panel” (2012).

In test [1] the target is T1, Serine/threonine-protein kinase TBK1 (Homo sapiens) (UniProt Q9UHD2).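 Note: values are mean inhibition of TBK1, screened as part of the GSK published kinase inhibitor set.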
T1 sequence (whole entry): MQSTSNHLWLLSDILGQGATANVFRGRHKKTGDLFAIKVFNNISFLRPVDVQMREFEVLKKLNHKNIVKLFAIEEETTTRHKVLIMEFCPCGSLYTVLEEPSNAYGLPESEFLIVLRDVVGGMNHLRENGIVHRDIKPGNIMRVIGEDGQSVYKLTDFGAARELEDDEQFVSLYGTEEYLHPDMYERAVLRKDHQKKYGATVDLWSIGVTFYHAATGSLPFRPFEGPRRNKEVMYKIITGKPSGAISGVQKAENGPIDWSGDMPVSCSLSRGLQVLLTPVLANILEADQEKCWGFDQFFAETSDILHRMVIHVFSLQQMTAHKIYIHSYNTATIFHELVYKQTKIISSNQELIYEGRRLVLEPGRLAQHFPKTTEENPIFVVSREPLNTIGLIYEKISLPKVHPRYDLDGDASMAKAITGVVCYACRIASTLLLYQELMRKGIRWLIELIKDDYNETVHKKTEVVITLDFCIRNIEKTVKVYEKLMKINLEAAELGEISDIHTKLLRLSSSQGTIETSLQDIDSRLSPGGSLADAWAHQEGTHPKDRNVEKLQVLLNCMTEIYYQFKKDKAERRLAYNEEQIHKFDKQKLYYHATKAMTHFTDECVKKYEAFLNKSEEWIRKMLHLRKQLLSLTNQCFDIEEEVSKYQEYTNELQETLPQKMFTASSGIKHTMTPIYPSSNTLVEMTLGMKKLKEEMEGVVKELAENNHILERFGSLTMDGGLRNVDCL
The following applies: at 1 µM.

Test [2] deals with T2, Testis-specific serine/threonine-protein kinase 1 (Homo sapiens) (UniProt Q9BXA7).
T2 sequence (whole entry): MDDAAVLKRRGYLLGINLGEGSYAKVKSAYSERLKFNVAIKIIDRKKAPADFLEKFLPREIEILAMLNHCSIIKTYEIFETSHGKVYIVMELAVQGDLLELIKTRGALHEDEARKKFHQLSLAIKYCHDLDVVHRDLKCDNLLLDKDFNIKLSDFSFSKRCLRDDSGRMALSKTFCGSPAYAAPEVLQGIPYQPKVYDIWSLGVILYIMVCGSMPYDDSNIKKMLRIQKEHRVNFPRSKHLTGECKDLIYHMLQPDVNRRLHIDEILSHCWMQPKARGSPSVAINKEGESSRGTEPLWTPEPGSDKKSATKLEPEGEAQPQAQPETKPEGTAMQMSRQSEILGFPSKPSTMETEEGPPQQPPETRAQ
The note with it: at 0.1 µM.

In test [3] the target is T2, Testis-specific serine/threonine-protein kinase 1 (Homo sapiens). The note with it: at 1 µM.
Test [4] addresses T3, Testis-specific serine/threonine-protein kinase 2 (Homo sapiens) (UniProt Q96PF2).
T3 sequence (whole entry): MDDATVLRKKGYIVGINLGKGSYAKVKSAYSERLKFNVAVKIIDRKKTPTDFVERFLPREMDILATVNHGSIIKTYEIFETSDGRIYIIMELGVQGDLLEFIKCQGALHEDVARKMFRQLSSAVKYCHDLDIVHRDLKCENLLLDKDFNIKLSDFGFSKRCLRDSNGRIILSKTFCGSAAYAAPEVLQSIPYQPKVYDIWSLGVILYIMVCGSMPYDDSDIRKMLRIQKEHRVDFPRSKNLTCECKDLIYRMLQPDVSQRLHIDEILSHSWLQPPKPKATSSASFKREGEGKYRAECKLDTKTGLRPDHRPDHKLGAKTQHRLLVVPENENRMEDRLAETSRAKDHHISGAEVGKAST
The note with it: at 0.1 µM.

Test [5] addresses T3, Testis-specific serine/threonine-protein kinase 2 (Homo sapiens). The note with it: at 1 µM.
The target in test [6] is Casein kinase I isoform alpha (Homo sapiens) (UniProt P48729). The following applies: at 0.1 µM.
Chain of UniProt P48729 (P48729 whole entry, looked up, canonical isoform): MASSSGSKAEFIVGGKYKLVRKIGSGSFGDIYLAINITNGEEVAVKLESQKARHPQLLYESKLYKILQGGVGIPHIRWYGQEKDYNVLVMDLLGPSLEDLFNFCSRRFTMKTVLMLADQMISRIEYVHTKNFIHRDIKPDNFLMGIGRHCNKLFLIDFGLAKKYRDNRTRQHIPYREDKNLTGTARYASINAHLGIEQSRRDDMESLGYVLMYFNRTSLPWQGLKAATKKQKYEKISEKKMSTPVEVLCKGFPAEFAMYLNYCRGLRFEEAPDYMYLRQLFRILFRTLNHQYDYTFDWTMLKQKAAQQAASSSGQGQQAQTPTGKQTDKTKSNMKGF
Test [7] has the same target. The following applies: at 1 µM.
Test [8] deals with Casein kinase I isoform gamma-1 (Homo sapiens) (UniProt Q9HCP0). The note with it: at 0.1 µM.
Chain of UniProt Q9HCP0 (Q9HCP0 whole entry, looked up, canonical isoform): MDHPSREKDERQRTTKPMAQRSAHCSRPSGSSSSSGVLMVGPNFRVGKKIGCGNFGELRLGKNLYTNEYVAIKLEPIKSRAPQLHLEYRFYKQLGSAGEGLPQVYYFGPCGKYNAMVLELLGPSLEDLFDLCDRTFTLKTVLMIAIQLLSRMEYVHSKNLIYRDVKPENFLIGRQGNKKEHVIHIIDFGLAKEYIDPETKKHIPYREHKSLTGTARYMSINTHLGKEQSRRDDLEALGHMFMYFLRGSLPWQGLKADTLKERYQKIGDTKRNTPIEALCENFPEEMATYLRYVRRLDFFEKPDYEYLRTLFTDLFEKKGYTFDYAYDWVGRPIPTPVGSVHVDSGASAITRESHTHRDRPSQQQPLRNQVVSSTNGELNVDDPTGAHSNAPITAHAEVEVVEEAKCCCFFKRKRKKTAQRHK
The target is the same in test [9]. The following applies: at 1 µM.
In test [10] the target is Casein kinase I isoform gamma-2 (Homo sapiens) (UniProt P78368). The following applies: at 0.1 µM.
Chain of UniProt P78368 (P78368 whole entry, looked up, canonical isoform): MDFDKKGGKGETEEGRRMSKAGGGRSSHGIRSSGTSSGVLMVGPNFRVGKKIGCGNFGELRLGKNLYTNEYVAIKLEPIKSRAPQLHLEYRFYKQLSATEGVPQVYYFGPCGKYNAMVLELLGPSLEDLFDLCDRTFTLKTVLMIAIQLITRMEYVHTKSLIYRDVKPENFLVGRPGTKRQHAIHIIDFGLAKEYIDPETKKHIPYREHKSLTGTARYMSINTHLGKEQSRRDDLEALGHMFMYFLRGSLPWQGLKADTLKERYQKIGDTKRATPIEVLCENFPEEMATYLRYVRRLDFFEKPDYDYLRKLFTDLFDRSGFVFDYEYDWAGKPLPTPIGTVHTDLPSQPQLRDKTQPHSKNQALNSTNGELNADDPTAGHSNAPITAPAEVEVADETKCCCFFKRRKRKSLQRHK
Test [11] has the same target. The following applies: at 1 µM.
Test [12] deals with Casein kinase I isoform gamma-3 (Homo sapiens) (UniProt Q9Y6M4). The note with it: at 0.1 µM.
Chain of UniProt Q9Y6M4 (Q9Y6M4 whole entry, looked up, canonical isoform): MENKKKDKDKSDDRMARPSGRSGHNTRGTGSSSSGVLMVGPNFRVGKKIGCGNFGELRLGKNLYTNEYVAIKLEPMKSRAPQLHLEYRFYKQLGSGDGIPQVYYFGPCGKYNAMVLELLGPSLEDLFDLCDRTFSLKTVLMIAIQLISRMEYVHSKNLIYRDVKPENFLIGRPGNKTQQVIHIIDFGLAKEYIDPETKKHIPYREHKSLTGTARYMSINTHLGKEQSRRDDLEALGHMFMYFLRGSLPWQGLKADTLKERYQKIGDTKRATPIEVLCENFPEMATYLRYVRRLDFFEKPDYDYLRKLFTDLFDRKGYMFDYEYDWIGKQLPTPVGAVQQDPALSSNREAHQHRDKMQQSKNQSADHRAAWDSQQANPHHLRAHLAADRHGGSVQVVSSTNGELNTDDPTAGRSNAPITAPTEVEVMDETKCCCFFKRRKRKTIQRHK
Test [13] has the same target. The following applies: at 1 µM.
Test [14] addresses Cyclin-dependent kinase 1 (Homo sapiens) (UniProt P06493). The note with it: at 0.1 µM.
Chain of UniProt P06493 (P06493 whole entry, looked up): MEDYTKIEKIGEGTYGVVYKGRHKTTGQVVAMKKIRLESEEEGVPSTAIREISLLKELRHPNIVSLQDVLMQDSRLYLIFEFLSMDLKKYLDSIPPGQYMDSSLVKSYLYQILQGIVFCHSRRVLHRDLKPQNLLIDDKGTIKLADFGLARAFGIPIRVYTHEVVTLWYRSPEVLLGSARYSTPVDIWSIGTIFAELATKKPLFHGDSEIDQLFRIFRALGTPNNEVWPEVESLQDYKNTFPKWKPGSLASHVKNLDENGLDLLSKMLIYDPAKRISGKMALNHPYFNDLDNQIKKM
Test [15] shares this target. The note with it: at 1 µM.
The target of test [16] is Cyclin-dependent kinase 2 (Homo sapiens) (UniProt P24941). The note with it: at 0.1 µM.
For test [17] the target is unchanged. The note with it: at 1 µM.
For test [18] the target is unchanged. The note with it: at 0.1 µM. The source holds these as a separate data set.
Test [19] has the same target. The following applies: at 1 µM. This is another data set of the same source.
The target in test [20] is CDK3/Cyclin E (Homo sapiens) (UniProt P24864+Q00526). The note with it: at 0.1 µM.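 Note: reported percentages are mean inhibition values.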
Chain of UniProt P24864 (P24864 whole entry, looked up): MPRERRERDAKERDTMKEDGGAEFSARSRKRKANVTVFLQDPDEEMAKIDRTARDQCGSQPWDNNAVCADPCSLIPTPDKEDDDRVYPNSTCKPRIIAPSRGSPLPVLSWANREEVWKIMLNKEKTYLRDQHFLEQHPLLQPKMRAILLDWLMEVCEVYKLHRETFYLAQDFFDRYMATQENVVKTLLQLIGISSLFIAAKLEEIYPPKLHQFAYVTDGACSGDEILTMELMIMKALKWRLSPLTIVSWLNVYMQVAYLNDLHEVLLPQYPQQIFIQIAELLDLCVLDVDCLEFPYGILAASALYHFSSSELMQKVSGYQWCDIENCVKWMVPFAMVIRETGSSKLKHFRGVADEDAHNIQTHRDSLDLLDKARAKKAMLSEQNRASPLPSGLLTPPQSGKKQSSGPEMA
Chain of UniProt P24864 (Q00526 whole entry, looked up): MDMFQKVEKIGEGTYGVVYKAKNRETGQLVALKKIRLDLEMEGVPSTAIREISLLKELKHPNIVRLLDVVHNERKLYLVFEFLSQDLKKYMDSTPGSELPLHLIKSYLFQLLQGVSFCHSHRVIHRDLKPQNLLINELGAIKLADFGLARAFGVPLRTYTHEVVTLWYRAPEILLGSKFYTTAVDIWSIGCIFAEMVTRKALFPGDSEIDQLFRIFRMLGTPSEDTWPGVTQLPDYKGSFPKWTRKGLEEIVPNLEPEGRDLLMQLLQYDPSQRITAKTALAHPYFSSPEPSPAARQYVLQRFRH

The term inhibition denotes the change of the read-out against control, counted positive when it falls.

SMILES strings stand for the structures. For part of these data: What follows is the remainder of the data, with few or none of the strong results. The entries are a selection whose mix differs from that of the whole data set.

With `O=C1NC(=O)C(c2cccc([N+](=O)[O-])c2)=C1Nc1cc(Cl)c(O)c(Cl)c1`, the inhibition in test [1] is 47.4%; in test [2] it was 0.09%; in test [3] it was 0.86%; in test [4] it was 0.66%; in test [5], 0.2%; in test [6] it was -1.53%. Also, the inhibition in test [7] is -0.13%; in test [8] it was 1.34%; in test [9], 1.75%; in test [10], 1.4%; in [11], 1.13%; in test [12], 1.54%. Also, the inhibition is 2.61% in test [13]; 0.93% in [14]; 3.94% in [15]; 0.41% in test [16]; 4.41% in test [17]; 0.63% in test [18]. The inhibition was 3.66% in test [19] and 0.47% in [20].

Regarding `Fc1ccc(-c2ncn(C3CCNCC3)c2-c2ccnc(Oc3cccc(C(F)(F)F)c3)n2)cc1`, the inhibition in test [1] stood at 3.82%; in test [2], 6.19%; in test [3], 5.46%; in test [4], 3.19%; in [5] it was 2.98%; in [6], 5.38%. Moreover, the inhibition in [7] was found to be 21.1%; in test [8], 4.86%; in test [9] it was 12.7%; in test [10] it was 4.6%; in test [11], 8.41%; in test [13], 18.4%. The inhibition was 1.02% in test [14]; 1.41% in test [15]; 3.4% in test [16]; 2.91% in test [17]; 2.94% in [18]; 3.74% in test [19]. For the same compound, the inhibition in test [20] is 0.01%.

As for `O=C1NC(=O)C(c2ccccc2)=C1Nc1ccccc1`, the inhibition in [1] is 7.59%; in test [2], 6.09%; in test [3], 5.4%; in test [4] it was 3.22%; in [5] it was 3.4%; in test [6], 1.4%. Also, the inhibition in test [7] came to 6.83%; in test [8], 4.53%; in test [9], 5.09%; in test [10], 4.11%; in [11], 13.4%; in [12], 2.44%. Also, the inhibition in test [13] is 4.27%; in test [14], 1.85%; in test [15], 8.16%; in [16] it was 3.16%; in test [17], 13.2%; in [18], 7.06%. For the same compound, the inhibition turned out to be 11.8% in [19] and 5.51% in [20].

Take `COc1ccccc1C1=C(Nc2ccccc2)C(=O)NC1=O`: the inhibition in test [1] is 7.18%; in test [2] it was 4.19%; in test [3] it was 2.98%; in test [4] it was 2.63%; in test [5], 1.76%; in [6], 3.01%. Also, the inhibition was 4.21% in [7]; 2.08% in [8]; 3.07% in [9]; 2.29% in test [10]; 2.19% in [11]; 2.41% in test [12]. Also, the inhibition in [13] worked out at 3.26%; in [14], 3.22%; in test [15], 20.8%; in test [16], 3.35%; in [17], 25.9%; in test [18], 5.24%. Also, the inhibition in test [19] is 19.7%; in [20], 4.74%.

`Fc1ccc(-c2ncn(C3CCNCC3)c2-c2ccnc(Oc3ccc(Cl)cc3)n2)cc1`: the inhibition in test [1] was 1.95%; in [2] it was 1.38%; in test [3], 0.67%; in test [4] it was 0.78%; in [5] it was 0.7%; in [6], 1.66%. In addition, the inhibition was 18.4% in [7]; 0.9% in test [8]; 3.97% in test [9]; 0.06% in test [10]; 2.65% in test [11]; -0.22% in test [12]. Also, the inhibition in test [13] was 7.47%; in test [14] it was 1.32%; in [15], 0.7%; in test [16], 2.1%; in test [17], 1.92%; in [18] it was -0.29%. For the same compound, the inhibition came to 1.19% in test [19] and 0.11% in test [20].

Consider `O=C(O)c1ccc(Oc2nccc(-c3c(-c4ccc(F)cc4)ncn3C3CCNCC3)n2)cc1`, for which the inhibition in test [1] worked out at 4.39%; in [2] it was 5.41%; in test [3], 4.67%; in test [4], 1.61%; in test [5] it was 1.97%; in test [6] it was 3.89%. The inhibition in [7] came out at 15.7%; in test [8], 4.29%; in test [9] it was 6.6%; in test [10] it was 4.39%; in test [11], 6.06%; in test [12] it was 6.15%. For the same compound, the inhibition was found to be 7.57% in test [13]; 2.95% in test [14]; 1.14% in test [15]; 3.34% in test [16]; 3.24% in test [17]; 1.44% in [18]. Further, the inhibition in [19] is 2.97%; in test [20], -1.93%.

As to `CC(C)(C)c1ccc(Oc2nccc(-c3c(-c4ccc(F)cc4)ncn3C3CCNCC3)n2)cc1`, the inhibition was 4.71% in [1]; 3.19% in test [2]; 4.6% in test [3]; 1.5% in test [4]; 2.01% in test [5]; 8.17% in [6]. Also, the inhibition in [7] came out at 36.6%; in test [8], 5.84%; in test [9], 24.2%; in [10] it was 4.62%; in [11], 20.3%; in test [12] it was 8.9%. Further, the inhibition in [13] worked out at 37.1%; in test [14], 2.5%; in [15] it was 4.39%; in [16] it was 2.76%; in test [17], 2.67%; in test [18], 4.72%. For the same compound, the inhibition in [20] was -1.72%.
